Data published in PubChem BioAssay AID624296 (National Center for Advancing Translational Sciences (NCATS), 2012).
Screen size: about 350,000 compounds; about 9,900 (2.8%) were called active. Inconclusive results, whose numbers are uncertain, are shown with a selection of clear calls. Calls come from the whole dose curve; as a rule, active = well fitted activation curve with a large enough effect; inconclusive = small, poorly fitted or top-dose-only effect; inactive = no such curve, though single readings can be large or run the other way. No potency is given beside an inconclusive call; the fits are too rough.

test: A quantitative high throughput screen for small molecules that induce DNA re-replication in MCF 10a normal breast cells.; note: nearly all actives have a fitted effect of over 50% in size; for activity, positive = re-replication: % of control where 0% means no effect; settings: MCF 10A DNA re-replication, Hoechst nuclear intensity, 48 h; activity, positive = re-replication: at 46.1 µM (top of the series)
Potency is the fitted concentration of half-maximal effect; tags give direction and shape of the fitted curve.

| SMILES | Potency | activity, positive = re-replication |
| --- | --- | --- |
| CC1(C)CCCC2=C1CC1C(=O)N(c3ccccc3)C(=O)C1C2 (stereo unspecified) | inconclusive [activator, full curve, poor fit] |  |
| O=C(Nc1ccccc1N1CCOCC1)c1cc(=O)[nH]c2ccccc12 |  | inactive: 0.0319% |
| COCc1cc(Sc2ccc(Cl)cc2)nc(-c2ccccc2)n1 | inconclusive [activator, partial curve] |  |
| CC(=O)c1cc2c(cc1NC(=O)c1cc(C)nn1-c1ccccc1)OCO2 | inconclusive [activator, partial curve] |  |
| COc1cccc2sc(Nc3nnc(-c4cccs4)o3)nc12 | active: 23.1 µM |  |
| Oc1cccc(C2c3[nH]c4ccccc4c3CCN2Cc2ccc3c(c2)CCO3)c1 (stereo unspecified) | active: 16.4 µM |  |
| Cc1cc(/C=N/n2cnnc2)c(C)n1-c1ccc(OCc2ccc(Cl)cc2Cl)cc1 | active: 1.46 µM |  |
| N#Cc1c(NC(=O)CSc2ncn(-c3ccccc3)n2)sc2c1CCCC2 | inconclusive [activator, partial curve, poor fit] |  |
| CSc1nc2nccc(-c3ccc(Cl)cc3)n2n1 |  | inactive: 1.87% |
| COc1cc(/C=C/C(=O)OCC(=O)c2ccccc2)cc(OC)c1OC |  | inactive: -2.78% |
| O=C(O)C1CC(=O)N(c2ccc(OCc3ccc(Cl)cc3Cl)cc2)C1 (stereo unspecified) | inconclusive [activator, single point] |  |
| Cc1ccc(CNC(=O)Cn2cnc3c(OCc4ccccc4)ncnc32)o1 | inconclusive [activator, full curve, poor fit] |  |
| CC(C)C[C@@H](CN1CCC[C@@H]1CN1C(=O)C(=O)NC[C@@H]1Cc1ccccc1)N1C[C@H](Cc2ccc(O)cc2)N(CC2CCCCC2)C(=O)C1=O |  | inactive: 0.449% |
| COc1cc(/C=C2/SC(=Nc3ccc(O)cc3)NC2=O)ccc1O | active: 5.17 µM |  |
| CC12CCC(O)CC1=CCC1C2CCC2(C)C(c3ccn[nH]3)CCC12 (stereo unspecified) | inconclusive [activator, single point] |  |
| Cn1c(N/N=C/c2c[nH]c3ccccc23)nc2ccccc21 | inconclusive [activator, single point] |  |
| CC1CN(C(=O)N2c3ccccc3Sc3ccccc32)C(C)CC1=O (stereo unspecified) | inconclusive [activator, partial curve, poor fit] |  |
| CCOC(=O)C1(Cc2ccccc2)CCN(Cc2cccn2-c2nccs2)CC1 | inconclusive [activator, partial curve, poor fit] |  |
| COCc1cc(N2CCCCC2)nc(-c2ccccc2)n1 | inconclusive [activator, single point] |  |
| O=C(C(=Cc1ccccc1)CN1CCCCC1)c1ccccc1 | active: 0.651 µM |  |
| CCNC(=S)N/N=C(\C)c1cccc(OC)c1 | inconclusive [activator, single point] |  |
| Cc1ccc(NCCCn2cnc(C(=O)Nc3ccc(C)c(C)c3)n2)cc1C |  | inactive: -0.745% |
| Cc1[nH]nc(SCC(=O)N(C)c2ccccc2)c1[N+](=O)[O-] |  | inactive: 1.11% |

| SMILES | Potency | activity, positive = re-replication |
| --- | --- | --- |
| CSC1=C(C#N)C(c2ccccc2)C(C(C)=O)=C(C)N1 (stereo unspecified) |  | inactive: 2.07% |
| Cc1ccc2[nH]c(=O)c(CN(Cc3nnnn3C3CCCC3)C3CCCCC3)cc2c1 |  | inactive: 20.7% |
| O=C(CCOc1ccccc1)N1CCN(S(=O)(=O)c2ccccc2F)CC1 |  | inactive: 2.58% |
| Cc1ccc(CNC(=O)c2cccnc2Sc2cccc(Cl)c2)cc1 | inconclusive [activator, single point] |  |
| COc1cc(OC)c(OC)cc1/C=N/Nc1nc2ccccc2[nH]1 | inconclusive [activator, partial curve, poor fit] |  |
| COc1ccc2c(C)cc(SCC(=O)Nc3cccnc3Cl)nc2c1 | inconclusive [activator, single point] |  |
| Clc1ccc(SCCOCCN2CCCCC2)cc1 | inconclusive [activator, partial curve, poor fit] |  |
| CCCCn1nc(NC(=O)c2cccs2)c2cc3ccccc3nc21 | inconclusive [activator, single point] |  |
| Cc1cccc(-n2ccnc2SCC(=O)Nc2nccs2)c1C |  | inactive: 25.1% |
| COC(=O)NNC(=O)COc1ccccc1C |  | inactive: 1.38% |
| CCC(CNC(=O)c1c(C)nn(-c2ccccc2)c1Cl)c1ccccc1 (stereo unspecified) | inconclusive [activator, partial curve] |  |
| O=C(CSc1nnc(-c2ccccc2)n1-c1ccc(Cl)cc1)NNC(=S)Nc1ccccc1 |  | inactive: -0.799% |
| CCCc1cc2c(-c3ccccc3)cc(=O)oc2cc1OCc1ccc(C(=O)O)o1 | inconclusive [activator, partial curve, poor fit] |  |
| Cc1nccc(-c2sc(-c3cccs3)nc2C)n1 | inconclusive [activator, single point] |  |
| Cc1[nH]c2ccccc2c1C(c1ccncc1)N1CCN(c2ccc(F)cc2)CC1 (stereo unspecified) | inconclusive [activator, partial curve, poor fit] |  |
| O=c1[nH]c(CN2CCN(C/C=C/c3ccccc3)CC2)nc2cc(Cl)ccc12 | inconclusive [activator, single point] |  |
| CSc1nsc(SCC(=O)Nc2ccc(F)cc2F)n1 |  | inactive: 1.7% |
| Cc1ccc(C)c(NC(=S)N/N=C2/CCCCc3ccccc32)c1 | inconclusive [activator, single point] |  |
| CCN(Cc1ccccc1)C(c1ccc(Cl)cc1)c1nnnn1C(C)(C)C (stereo unspecified) | inconclusive [activator, single point] |  |
| Cc1ccc(-c2cc(C(=O)NCC(c3ccccc3)N(C)C)c3ccccc3n2)o1 (stereo unspecified) | inconclusive [activator, single point] |  |
| COc1ccc(Cl)cc1NC(=O)c1sc2nc(C)nc(N3CCOCC3)c2c1C |  | inactive: 8.85% |
| CN(CC(=O)Nc1ccc(N2CCOCC2)cc1)C(=O)CCNC(=O)c1ccc(Br)cc1 |  | inactive: -1.67% |
| CCc1cccc2c(C(=O)C(NCCCOC)c3ccccc3)c[nH]c12 (stereo unspecified) | inconclusive [activator, partial curve, poor fit] |  |
